Like-named read-outs stand apart in the source and are kept apart here.
T1: recombinant human VEGF-A165 (human, UniProt P15692-4 27-191)
T1 sequence (looked up): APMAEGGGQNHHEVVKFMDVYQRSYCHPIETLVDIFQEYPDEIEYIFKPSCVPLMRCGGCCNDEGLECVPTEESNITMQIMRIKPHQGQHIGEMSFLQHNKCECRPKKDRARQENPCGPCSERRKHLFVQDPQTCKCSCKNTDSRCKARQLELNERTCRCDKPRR

T2: recombinant human PIGF (human, UniProt P49763-2 19-149, limits assumed)
T2 construct: also called PlGF; placental growth factor
T2 sequence (looked up): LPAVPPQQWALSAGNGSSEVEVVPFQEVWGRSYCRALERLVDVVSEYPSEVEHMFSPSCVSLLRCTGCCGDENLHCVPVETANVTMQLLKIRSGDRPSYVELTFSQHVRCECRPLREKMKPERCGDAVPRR

T3: recombinant human IL-6R (human, UniProt P08887 20-365, limits assumed)
T3 construct: Recombinant protein used in ELISA and as SPR analyte; also called hIL-6R
T3 sequence (looked up): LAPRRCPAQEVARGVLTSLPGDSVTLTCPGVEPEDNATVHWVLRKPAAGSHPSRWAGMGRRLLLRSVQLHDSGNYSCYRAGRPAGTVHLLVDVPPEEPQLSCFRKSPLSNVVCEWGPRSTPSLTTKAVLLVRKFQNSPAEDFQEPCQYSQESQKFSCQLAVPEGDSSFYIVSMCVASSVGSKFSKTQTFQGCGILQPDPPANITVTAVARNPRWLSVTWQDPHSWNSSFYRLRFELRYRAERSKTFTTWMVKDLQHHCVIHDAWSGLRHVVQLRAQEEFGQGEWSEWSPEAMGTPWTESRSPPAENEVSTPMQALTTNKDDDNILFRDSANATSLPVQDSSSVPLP

T4: recombinant human Ang-1 (human, UniProt Q15389 20-498, limits assumed)
T4 construct: also called Angiopoietin 1
T4 sequence (looked up): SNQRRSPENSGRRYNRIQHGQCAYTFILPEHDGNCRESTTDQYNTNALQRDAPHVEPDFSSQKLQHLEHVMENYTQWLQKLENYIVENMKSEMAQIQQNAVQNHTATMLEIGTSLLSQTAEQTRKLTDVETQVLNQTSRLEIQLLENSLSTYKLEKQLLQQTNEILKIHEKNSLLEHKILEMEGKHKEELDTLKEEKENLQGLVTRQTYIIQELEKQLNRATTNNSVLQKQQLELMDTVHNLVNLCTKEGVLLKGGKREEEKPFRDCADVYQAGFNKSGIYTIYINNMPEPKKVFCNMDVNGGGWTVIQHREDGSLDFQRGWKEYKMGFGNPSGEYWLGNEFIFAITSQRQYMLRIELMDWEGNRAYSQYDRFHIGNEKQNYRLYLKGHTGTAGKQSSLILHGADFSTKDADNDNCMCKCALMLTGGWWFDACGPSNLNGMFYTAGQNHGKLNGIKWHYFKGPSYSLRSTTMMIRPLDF

T5: recombinant human Ang-2 (human, UniProt O15123 19-496, limits assumed)
T5 construct: also called Angiopoietin-2; hAng-2
T5 sequence (looked up): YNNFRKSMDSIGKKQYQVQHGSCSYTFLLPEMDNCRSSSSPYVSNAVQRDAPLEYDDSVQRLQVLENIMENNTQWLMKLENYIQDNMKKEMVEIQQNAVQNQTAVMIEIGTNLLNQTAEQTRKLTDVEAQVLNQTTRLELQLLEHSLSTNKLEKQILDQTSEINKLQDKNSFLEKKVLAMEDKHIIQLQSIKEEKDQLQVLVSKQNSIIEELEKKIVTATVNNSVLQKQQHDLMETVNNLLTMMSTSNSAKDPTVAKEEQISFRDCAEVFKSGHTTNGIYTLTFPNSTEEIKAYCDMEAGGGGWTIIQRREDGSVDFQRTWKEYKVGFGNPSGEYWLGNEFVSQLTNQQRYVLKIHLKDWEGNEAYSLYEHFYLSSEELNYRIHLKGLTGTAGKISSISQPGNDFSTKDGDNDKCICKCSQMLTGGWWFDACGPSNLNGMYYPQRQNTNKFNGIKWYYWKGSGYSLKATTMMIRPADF

T6: recombinant human VEGF-B167 (human, UniProt P49765-2 22-188)
T6 sequence (looked up): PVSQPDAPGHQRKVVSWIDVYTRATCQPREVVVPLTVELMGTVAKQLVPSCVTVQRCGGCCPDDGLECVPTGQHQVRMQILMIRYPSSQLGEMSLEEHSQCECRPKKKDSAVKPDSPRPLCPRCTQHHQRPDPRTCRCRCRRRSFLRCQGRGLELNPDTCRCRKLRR

B1: EB-105BI-15CA (other)
heavy: QVQLQESGPGLVRPSQTLSLTCTVSGYSITSDHAWSWVRQPPGRGLEWIGYISYSGITTYNPSLKSRVTMLRDTSKNQFSLRLSSVTAADTAVYYCARSLARTTAMDYWGQGSLVTVSSASTKGPSVFPLAPSSKSTSGGTAALGCLVKDYFPEPVTVSWNSGALTSGVHTFPAVLQSSGLYSLSSVVTVPSSSLGTQTYICNVNHKPSNTKVDKKV[human IgG1 Fc skipped]GGSGGGGSGGGGSMGAQQKYQPLDELDKTLYDQFMLQQGLE
light: SDTGRPFVEMYSEIPEIIHMTEGRELVIPCRVTSPNITVTLKKFPLDTLIPDGKRIIWDSRKGFIISNATYKEIGLLTCEATVNGHLYKTNYLTHRQTNTIIDVVLSPSHGIELSVGEKLVLNCTARTELNVGIDFNWEYPSSKHQHKKLVNRDLKTQSGSEMKKFLSTLTIDGVTRSDQGLYTCAASSGLMTKKNSTFVRVHEKDIQMTQSPSSLSASVGDRVTITCRASQDISSYLNWYQQKPGKAPKLLIYYTSRLHSGVPSRFSGSGSGTDFTFTISSLQPEDIATYYCQQGNTLPYTFGQGTKVEIKRTVAAPSVFIFPPSDEQLKSGTASVVCLLNNFYPREAKVQWKVDNALQSGNSQESVTEQDSKDSTYSLSSTLTLSKADYEKHKVYACEVTHQGLSSPVTKSFNRGEC
notes: Trispecific antibody fusion protein, first embodiment; also called B21138004
B2: EB-105BIc1 (other)
heavy chain (tocilizumab heavy chain, linker, Ang-2 sdAb A38-196): QVQLQESGPGLVRPSQTLSLTCTVSGYSITSDHAWSWVRQPPGRGLEWIGYISYSGITTYNPSLKSRVTMLRDTSKNQFSLRLSSVTAADTAVYYCARSLARTTAMDYWGQGSLVTVSSASTKGPSVFPLAPSSKSTSGGTAALGCLVKDYFPEPVTVSWNSGALTSGVHTFPAVLQSSGLYSLSSVVTVPSSSLGTQTYICNVNHKPSNTKVDKKV[human IgG1 Fc skipped]GGSGGGGSEVQLVESGGGLVQPGGSLRLSCAASGLYFSSYDIAWVRQAPGKGLEFVSAIDVSGEHTYYADSVKGRFTISRDNAKNTLYLQMNSLRAEDTAVYYCNAVKWSDYGPDNDYWGQGTLVTVSS
light chain (VEGFR-1-D2, VEGFR-2-D3, tocilizumab light chain): B1 light
notes: also called MFDDHD001
B3: EB-105BIc2 (other)
heavy chain (tocilizumab heavy chain, linker, Ang-2 sdAb A41-089): QVQLQESGPGLVRPSQTLSLTCTVSGYSITSDHAWSWVRQPPGRGLEWIGYISYSGITTYNPSLKSRVTMLRDTSKNQFSLRLSSVTAADTAVYYCARSLARTTAMDYWGQGSLVTVSSASTKGPSVFPLAPSSKSTSGGTAALGCLVKDYFPEPVTVSWNSGALTSGVHTFPAVLQSSGLYSLSSVVTVPSSSLGTQTYICNVNHKPSNTKVDKKV[human IgG1 Fc skipped]GGSGGGGSEVQLQESGGGLVQPGGSLRLSCAASGFTLDAYAIGWFRQAPGKEREGVSTIGKSDGSTCYADSVKGRFTISRDNAKNTVWLQMNSLRAEDTAVYYCAARPWWVGDAPSIAAEYEYDLWGQGTQVTVSS
light chain (VEGFR-1-D2, VEGFR-2-D3, tocilizumab light chain): B1 light
notes: also called MFDDHD002

Columns and labels:
[1] = target: T1, recombinant human VEGF-A165; test: cell-based or functional assay
recombinant human PIGF = target: T2, recombinant human PIGF; test: ELISA on plate-coated recombinant human PIGF; anti-human IgG1-Fc-HRP, OD450
Protocol: (§1) After non-specific blocking using 1% BSA at 25° C. for 1 hour, a series of dilutions of test antibodies (“Abs”) were added into the coated wells and incubated at 25° C. for 1 hour. The bound Abs were detected using a secondary Ab (goat anti-human IgG1-Fc) conjugated with HRP followed by OD₄₅₀ reading.

recombinant human IL-6R = target: T3, recombinant human IL-6R; test: ELISA on plate-coated recombinant human IL-6R; anti-human IgG1-Fc-HRP, OD450
Protocol: as §1
The same ELISA procedure was performed with recombinant human IL-6R. […] Vobarilizumab is a single domain antibody against IL-6R. B781402 and B781405 are bispecific fusion antibodies that inhibit VEGF-A, B, PIGF and IL-6R.

recombinant human Ang-1 = target: T4, recombinant human Ang-1; test: ELISA on plate-coated recombinant human Ang-1; anti-human IgG1-Fc-HRP, OD450
Protocol: as §1
The same ELISA procedure was performed with recombinant human Ang-1.

recombinant human Ang-2 [2] = target: T5, recombinant human Ang-2; test: ELISA on plate-coated recombinant human Ang-2; anti-human IgG1-Fc-HRP, OD450
Protocol: as §1

recombinant human Ang-2 [3] = target: T5, recombinant human Ang-2; test: as above; remark: listed apart in the source
Protocol: as §1

[4] = target: T6, recombinant human VEGF-B167; test: ELISA on plate-coated recombinant human VEGF-B167; anti-human IgG1-Fc-HRP, OD450
Protocol: as §1

[5] = target: T1, recombinant human VEGF-A165; test: ELISA on plate-coated recombinant human VEGF-A165; anti-human IgG1-Fc-HRP, OD450
Protocol: as §1

[6] = target: T1, recombinant human VEGF-A165; test: cell-based or functional assay; remark: listed apart in the source

| Binder | IC50, inhibition of VEGF-A165-stimulated VEGFR-2 NF-AT luciferase reporter (HEK-293), luminescence [1] [pM] | EC50 (recombinant human PIGF) [pM] | EC50 (recombinant human IL-6R) [pM] | EC50 (recombinant human Ang-1) [pM] | EC50 (recombinant human Ang-2 [2]) [pM] | EC50 (recombinant human Ang-2 [3]) [pM] | EC50 [4] [pM] | EC50 [5] [pM] | IC50, inhibition of VEGF-A165-stimulated VEGFR-2 NF-AT luciferase reporter (HEK-293), luminescence [6] [pM] |
| --- | --- | --- | --- | --- | --- | --- | --- | --- | --- |
| B1 | 527 | 45 | 95 | 3810 | 119 | 186 | 37 | 65 |  |
| B2 |  |  | 218 |  | 228 |  |  | 711 | 262 |
| B3 |  |  | 227 |  | 124 |  |  | 667 | 289 |

Reference: patent US20260265359A1 (Hoffmann-La Roche, published 2026)
